Test systems include CCRF-CEM leukemia; NCI-H23 lung; M14 melanoma; SF-268 CNS; U251 CNS; SK-OV-3 ovarian; HCT-116 colon; NCI-H460 lung; XF 498 CNS; OVCAR-8 ovarian; SR leukemia; MDA-MB-435; HOP-92 NSCLC; HL-60(TB) leukemia; NCI/ADR-RES ovarian; OVCAR-4 ovarian; MOLT-4 leukemia; RPMI-8226 leukemia; K-562 leukemia; IGROV1 ovarian.
Experiment in all cases: growth of human tumour cells (NCI), 48 h

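Compound exposure: 48 hours, 5 concentrations, 96-well plates. Abbreviation: GI50, concentration required for 50% inhibition of growth.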 A number of entries come with more than one value. Only these are listed. There may be further records. For part of these data: A record mostly stands for its own series of concentrations, not given here; some values may only mark the edge of a range.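 TGI: concentration producing complete growth inhibition.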 For part of these data: Values given together are repeats in other runs, samples, wells, individuals or studies. What stands in brackets tells the records apart. A, B and so on number the origins entry by entry.

For the molecule `COc1cc2c(c(OC)c1OC)-c1ccc(SC)c(=O)cc1[C@@H](NCc1ccc([N+](=O)[O-])cc1)CC2`, the TGI is 696 nM and > 100 µM with CCRF-CEM leukemia; 9.36 nM and 88.9 µM with NCI-H23 lung; 315 nM and 79.4 µM in the experiment on M14 melanoma; 526 nM and > 100 µM in the experiment with SF-268 CNS; 21.5 nM and > 100 µM in the experiment with U251 CNS; 23.9 nM and > 100 µM in the experiment with SK-OV-3 ovarian. The TGI with HCT-116 colon was 17.4 nM and 1.08 µM; in the experiment on NCI-H460 lung, 21.6 nM and > 100 µM; with XF 498 CNS it was 403 nM and 6.89 µM; in the experiment with OVCAR-8 ovarian, 28.9 nM and > 100 µM; in the experiment on SR leukemia, 9.44 nM and > 100 µM.
Turning to `CCCCCC(O)C(O)CCC[C@H](O)[C@H]1CC[C@H]([C@H]2CC[C@H]([C@H](O)CCCCCCCCCCCCC3=C[C@H](C)OC3=O)O2)O1` (some centres undefined), the TGI in the experiment with MDA-MB-435 was 7.81 µM and > 100 µM.
On to `COc1ccc(-c2cc3c(C)nc(N)nc3n(C3CCC(OCCO)CC3)c2=O)cn1` (centres undefined), for which, in the experiment on HOP-92 NSCLC, the TGI is 575 nM [sample A, mean of 2 tests] and 49.9 nM [sample B, 1 test].
As for `C=C1C(C)C2C(Cc3ccccc3)NC(=O)C23OC(=O)/C=C\CC(=O)CCC(C)C/C=C/C3C1O` (centres undefined), the TGI is 243 nM [mean of 2 tests] and 8.74 µM [mean of 6 tests] in the experiment with CCRF-CEM leukemia; 397 nM [mean of 2 tests] and 5.28 µM [mean of 7 tests] with HL-60(TB) leukemia. In addition, the GI50 in the experiment with NCI/ADR-RES ovarian is 58.5 nM [mean of 2 tests] and 3.43 µM [mean of 7 tests].
Take `Cc1cc(-c2c(F)cc3c4nn([C@H]5CC[C@@H](N(C)C)CC5)c(=O)c-4cn(C4CC4)c3c2F)cc(C)n1`: the TGI with CCRF-CEM leukemia was 36.2 nM and 945 nM; in the experiment on M14 melanoma, 230 nM and 3 µM; in the experiment with OVCAR-4 ovarian, 711 nM and > 22.5 µM; with MOLT-4 leukemia, 4.99 nM and 178 nM; in the experiment with RPMI-8226 leukemia, 117 nM and 2.61 µM; in the experiment on HOP-92 NSCLC it was 170 nM and 1.76 µM. Also, the TGI with K-562 leukemia was 230 nM and > 100 µM; in the experiment with IGROV1 ovarian, 810 nM and 10.8 µM.

Values taken from PubChem BioAssay (NCI).
